According to the supplement of paper PMC11417369:
The list shows a part of the results.

Each sequence was assayed on PfHDP1 homeodomain (GST-tagged) (assay: gcPBM binding intensity (ln(normalized median fluorescence intensity)); higher = stronger DNA binding).
Method in brief: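 GST-tagged P. falciparum DNA-binding domains, expressed in E. coli (about 25 μg on average), were applied for 1 h to an Agilent 4 × 180k array of primer-extended double-stranded 36-bp intergenic genomic probes plus negative controls. The binding buffer was 1× PBS with 1% milk, 0.2 mg/ml BSA, 0.5% salmon testes DNA and 0.03% Triton X-100. Bound protein was detected with Alexa488 anti-GST antibody and scanned at 488 nm. Binding intensity is the highest Masliner-normalised natural-log median intensity across replicate spots of either probe orientation.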

Sequence | gcPBM binding intensity (ln)
AAAAAATATAAAAAAACACACAAAAAAAAAAAAAAA [CACACA_site1382] | 5.98
CCCCATTTATCTTAAGCATGCCATGGTTTTAGATAT [TGCATGCA_site24] | 7.16
AAAGACGTTTATAAATGTACATACACTTTAAAAGTT [XGTACX_site8753] | 6.45
AATAGTGTCATAAAAACTATTATCATATAATGTGAA [CACACA_negctrl_site1578] | 6.28
TAATTTATAACACGCGCACACATATATATATAGTAA [CACACA_site121] | 7.29
TTTCTTTTTAACTCTTACATAATAGGTGGTAGAAGG [TGCATGCA_negctrl_site176] | 6.47
TTGTTGTGTATTATCGTGCACATAATATAAAAGATT | 10.5
CATATATACAGTAACACACACAAAAAAATATGAATA [CACACA_site3996] | 6.91
TTATTTATTTATTATAGTTCACTTGAAAATACAAGA [CACACA_negctrl_site1480] | 6.27
AATAACATTATTTTATGTACACATGAAAAATAAAAT [XGTACX_site4657] | 6.5
TGATATTTCATCATAGTGCAATATGGCATATAAATA [GTGCAC_site9433] | 9.54
TGTAATAAACTACTTTTTTTTTTTTTTTTTTTTTTT [CACACA_negctrl_site1021] | 7.2
AATATCAAAATAACATGTACATGTTATATTTTATTT [XGTACX_site5891] | 6.35
CAGAAATATTCTTATACACACTGTTCTTATATTCCT [CACACA_site4318] | 6.77
AATATATATATAAATAGTACATATAAAGAGAATTTT [XGTACX_site3168] | 6.69
TTTATCTTTTTTTGTTGTACAGATGTTTATATTTTA [XGTACX_site4065] | 6.43
ATTAAAACAAAATGTACACACATATAATTTAATGAC [CACACA_site878] | 6.27
AATTATTTTAGAAACACACAAATTAGAAAAAACATA [CACACA_site7673] | 6.76
GTATATATCTCAGAGCATAATAGTATAATTCGGTCA [CACACA_negctrl_site876] | 7.19

Sequence | gcPBM binding intensity (ln)
TTTCTTTTTTGATGCGTGCACATTTGTTTATTTTTC [GTGCAC_site9792] | 8.48
ACTATTTAATATAGGGTGCAACTTTTTCAAGTAAAT [GTGCAC_site9853] | 9.13
GTATGCATTATATACACACATACATTTATATATTCT [CACACA_site115] | 6.9
ATTATATACATTTTAGTGCATTACATAATAATATAA [GTGCAC_site9836] | 10.4
TATCTTTTTACAATAGTGCATATGTTATCATTAATA [GTGCAC_site9489] | 8.36
TTTATTTATTAATACACACACACACCCAGACAAAAT [CACACA_site4292] | 7.6
AGATATATAAATATTACACACTATATATCTATTTAT [CACACA_site6466] | 6.64
ATTTGCCCATTTAATTAACACACAAATGTTTATATT [CACACA_site8145] | 7.02
TTATACTTTGGGTGGTGTACTATATTATGCTTATAA [XGTACX_site1106] | 7.63
TGCTATTTTTTCCTTTTTTTGTATCACAATCATATA [CACACA_negctrl_site1576] | 6.41
ATGTATATATTTACGTGTACATATTCATGTGATATC [XGTACX_site5871] | 6.46
ATTAAACATAAATATGCACACATATACATATATTCA [CACACA_site8850] | 9.5
AGTAATAAAAGTAGAAGTACAATACTTCAAAGATAT [XGTACX_site8562] | 6.38
GTTCTAAAAGTTAATGCATGTTATAAGTTTCCCTCT [TGCATGCA_site94] | 6.53
TATTTCAAAATATGGGTGCAGTTCTTCATGATATAT [GTGCAC_site9658] | 7.01
TTTTTTTTTTTGTGGTGTACCTTTATTTCCTTTTAG [XGTACX_site6934] | 6.18
AAAAAAAAAAAACACACACACACACCGATACATACA [CACACA_site8849] | 6.8
AAAGGGGAAAATATTATACATATAATAAATCCGTAT [XGTACX_negctrl_site355] | 6.26
TGTGTCCATTGAACAGTGCAATAAAAACTTTTACAT | 8.77

Sequence | gcPBM binding intensity (ln)
TGTGTTCATATATGCACACGCATATATATTATTGTT [CACACA_site3822] | 9.67
ATAAATATGGAGCACACACACATAAACATACATATA [CACACA_site421] | 7.49
ATTTTTATTCTTATTACACACCTAAATATAAAATAT [CACACA_site2064] | 6.88
TTTATATTTATATTGGGTACATAAAAAGCTTGAAAT [XGTACX_site8248] | 6.27
ATTTTTCAATTATGTAGTACATTGATATTTTCATTT [XGTACX_site5369] | 6.26
ACCCCCATATTCTTTTTACACACTTGAATAAAAAAT [CACACA_site8319] | 7.29
ATTCATTTTATTTTTTCACACACACCGATATATATA [CACACA_site9097] | 6.96
TTTATTTGGACATATACACACTTAAATATGTTTATT [CACACA_site6021] | 6.67
TTTATTTTGTTTTCTTGTACATAAATAATTACATAT [XGTACX_site4227] | 6.68
TAAATACAAGTAAAAAGTACAGAAAAATTATATATA [XGTACX_site1758] | 6.45
TGATTCACTATAGTAGTGCATATTATATATATATAT [GTGCAC_site9975] | 9.23
TATAATAATTCATAATGTACTTTTATCAAAAAAGTA [XGTACX_site6868] | 6.05
AAGAGAAATGGGCACACACACACATATTATAGATAT [CACACA_site6828] | 6.88
TATAAAAAATTCAATACACACCATATATAAATATAT [CACACA_site6060] | 6.43
CAAATACACGGACACACACACACAAAAAAAAAAAAA [CACACA_site6385] | 6.88
AAATTATTGTAAAATAGTACAGTGAAACATAAAGTT [XGTACX_site589] | 6.48
ATGTGCACATGTAGAAGTACTTTTTCTTAAAATACT [XGTACX_site8341] | 10.9
TATGTTTTATATAAGATGCACTTTTGTTATGCTTCA | 7.51
AAAAAAAAATATATATATATATATATATAATAAAAA [CACACA_negctrl_site639] | 6.75
